# According to PubChem BioAssay (NCATS):
# Inconclusive results, whose numbers are uncertain, are shown with a selection of clear calls. Potencies of inconclusive entries are left out as doubtful fits. Active and inactive are the calls of the source. Calls follow the shape of the dose curve; as a rule, active = well fitted cell-killing curve with a large enough effect; inconclusive = small, poorly fitted or top-dose-only effect; inactive = flat fitted curve, though single readings scatter.
# Experiment: Cell Viability - LYMP2-007 (AID 979);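 also: cells exposed to compound for 24 h before reading; nearly all actives have a fitted effect of over 60% in size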;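 as to activity change, negative = cytotoxicity: 0% = DMSO only and the negative end = 92 µM tetraoctylammonium bromide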
# Details: LYMP2-007 lymphoblastoid cell viability; series mostly up to 92.2 µM; activity change, negative = cytotoxicity: at the top concentration
# From the text: NIH Chemical Genomics Center [NCGC]
# NIH Molecular Libraries Screening Centers Network [MLSCN]
# National Institutes of Environmental Health Sciences [NIEHS]
# National Toxicology Program [NTP]
# We have developed a 1536-well cell-based assay for quantitative high throughput screening (qHTS) against a number of cell lines to determine in vitro cytotoxicity of small molecules. This particular assay uses a human lymphoblastoid cell line (LYMP2-007) purchased from Coriell Institute for Medical Research.
# NCGC Assay Protocol Summary:
# The CellTiter-Glo luminescent cell viability assay (Promega) is a homogeneous method to measure the number of viable cells in culture. The end point readout of this assay is based on quantitation of intracellular ATP, an indicator of metabolic activity, using the luciferase reaction. Luciferase catalyzes the oxidation of beetle Luciferin to oxyluciferin and light in the presence of ATP. The luminescent signal is proportional to amount of ATP present.
# Using the CellTiter-Glo luminescent cell viability assay, the amount of cellular ATP was measured in the lymphoblastoid cell line with complete culture medium following compound treatment for 24 hours. The assay was performed in opaque white Kalypsys 1536-well plates. In the screen, tetraoctylammonium bromide was used as positive control. Library compounds were measured for their ability to cause acute toxicity in the cell line, as reflected by a decrease in intracellular ATP levels, in a concentration-dependent manner. […] AC50 values were determined from concentration-response data modeled with the standard Hill equation.
# qHTS protocol for CellTiter Glo lymphoblastoid cellular assay
# [Step] [Parameter] [Value] [Description]
# 1. Reagent; 5 uL; 2500 lymphoblastoid cells/well
# 2. Time; 5 hr; 37 C incubation
# 4. Controls; 23 nL; Tetraoctylammonium bromide 6.4pM to 92 uM
# 5. Time; 24 hr; 37 C incubation
# 6. Reagent; 5 uL; CellTiter Glo reagent
# 7. Time; 30 min; Room Temperature
# 8. Detection; Luminescence; Viewlux plate reader
# Keywords: cell viability, cytotoxicity, lymphoblastoid cell line, luminescence, NTPHTS, NTPHTS_NCGC, NIEHS, DSSTox, MLSMR, MLSCN, NIH Roadmap, qHTS, NCGC
# Potency is read from the fitted curve at half-maximal effect; tags tell the direction and shape of the fitted curve.
SMILES,Potency,"activity change, negative = cytotoxicity"
CCC(=O)/C=C/C1C(C)=CCCC1(C)C (stereo not given),"inconclusive [cytotoxic, partial curve, poor fit]",
C=C(C)OC(C)=O,,inactive: 7.39%
O=CC(=O)c1ccccc1,"inconclusive [cytotoxic, partial curve, poor fit]",
CN1[C@H]2CC(OC(=O)[C@H](CO)c3ccccc3)C[C@H]1[C@H]1O[C@H]12 (stereo not given in full),inactive,
O=C(/C=C/c1ccc(O)c(O)c1)O[C@@H](C(=O)O)[C@@H](OC(=O)/C=C/c1ccc(O)c(O)c1)C(=O)O,,inactive: -2.77%
C=Cc1ccccc1Cl,,inactive: 0.582%
O=[N+]([O-])c1cccc(Cl)c1,,inactive: -11.1%
c1cc2c3c(c1)ccc1cccc(c13)C2,"inconclusive [cytotoxic, single point]",
Nc1ccc(S(=O)(=O)O)cc1,,inactive: -11.1%
CC(=O)Nc1cccc(C)c1,,inactive: -9.41%
Cc1ccccc1C#N,,inactive: -0.137%
Cc1ccc2ccccc2c1[N+](=O)[O-],,inactive: -5.01%
C/C(Cl)=C/CCl,,inactive: 1.54%
CC(=O)c1ccc([N+](=O)[O-])cc1,,inactive: -11.8%
Clc1ccc(Cl)c(Cl)c1Cl,,inactive: -3.35%
